According to the supplement of paper PMC11741623:
This is one part of the list. Interaction screen of human proteins with wild-type SARS-CoV-2 proteins by split-DHFR complementation in yeast, 1 µg/mL methotrexate. Value = fitness of the pair (three or more lineages) minus that of the viral protein without a human partner, on a scale set by negative (0) and fused positive (1) controls, mean of up to three cultures; higher = more likely to interact. Active = false discovery rate below 0.05 (one-sided t-test) in at least one culture. Nearly all pairs are not hits, and differences among them are mostly noise (correlation between cultures about 0.3); most hits were seen in one culture only. Human sequences are the Swiss-Prot entries looked up by gene name; the clone may be another isoform. NSP2 values were corrected by the authors for a growth advantage. Listed are human proteins with a hit and a random twelfth of the others.

B1: HTN3, P15516 (protein)
chain: MKFFVFALILALMLSMTGADSHAKRHHGYKRKFHEKHHSHRGYRSNYLYDN
B2: DEFB121, Q5J5C9 (protein)
chain: MKLLLLLLTVTLLLAQVTPVMKCWGKSGRCRTTCKESEVYYILCKTEAKCCVDPKYVPVKPKLTDTNTSLESTSAV
B3: IL37, Q9NZH6 (protein)
chain: MSFVGENSGVKMGSEDWEKDEPQCCLEDPAGSPLEPGPSLPTMNFVHTSPKVKNLNPKKFSIHDQDHKVLVLDSGNLIAVPDKNYIRPEIFFALASSLSSASAEKGSPILLGVSKGEFCLYCDKDKGQSHPSLQLKKEKLMKLAAQKESARRPFIFYRAQVGSWNMLESAAHPGWFICTSCNCNEPVGVTDKFENRKHIEFSFQPVCKAEMSPSEVSD
B4: PLD5, Q8N7P1 (protein)
chain: MEIRQHEWLSASPHEGFEQMRLKSRPKEPSPSLTRVGANFYSSVKQQDYSASVWLRRKDKLEHSQQKCIVIFALVCCFAILVALIFSAVDIMGEDEDGLSEKNCQNKCRIALVENIPEGLNYSENAPFHLSLFQGWMNLLNMAKKSVDIVSSHWDLNHTHPSACQGQRLFEKLLQLTSQNIEIKLVSDVTADSKVLEALKLKGAEVTYMNMTAYNKGRLQSSFWIVDKQHVYIGSAGLDWQSLGQMKELGVIFYNCSCLVLDLQRIFALYSSLKFKSRVPQTWSKRLYGVYDNEKKLQLQLNETKSQAFVSNSPKLFCPKNRSFDIDAIYSVIDDAKQYVYIAVMDYLPISSTSTKRTYWPDLDAKIREALVLRSVRVRLLLSFWKETDPLTFNFISSLKAICTEIANCSLKVKFFDLERENACATKEQKNHTFPRLNRNKYMVTDGAAYIGNFDWVGNDFTQNAGTGLVINQADVRNNRSIIKQLKDVFERDWYSPYAKTLQPTKQPNCSSLFKLKPLSNKTATDDTGGKDPRNV
B5: CSNK1A1L, Q8N752 (protein)
chain: MTNNSGSKAELVVGGKYKLVRKIGSGSFGDVYLGITTTNGEDVAVKLESQKVKHPQLLYESKLYTILQGGVGIPHMHWYGQEKDNNVLVMDLLGPSLEDLFNFCSRRFTMKTVLMLADQMISRIEYVHTKNFLHRDIKPDNFLMGTGRHCNKLFLIDFGLAKKYRDNRTRQHIPYREDKHLIGTVRYASINAHLGIEQSRRDDMESLGYVFMYFNRTSLPWQGLRAMTKKQKYEKISEKKMSTPVEVLCKGFPAEFAMYLNYCRGLRFEEVPDYMYLRQLFRILFRTLNHQYDYTFDWTMLKQKAAQQAASSSGQGQQAQTQTGKQTEKNKNNVKDN

Molecular target: SARS-CoV-2 M
Assay: yeast fitness gain over the viral ORF with no human partner (scaled fitness); higher = more likely to interact
Experimental: (§1)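 Split mouse DHFR complementation in pooled diploid yeast: human ORFeome clones carry one fragment and viral ORFs the other; barcoded lineages compete in 1 µg/mL methotrexate and fitness is read by barcode sequencing in up to three cultures.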

Question: B1 was tested. Which yeast fitness gain did it give?
Answer: inactive: -0.00678

Question: With B2 as the binder, how does the yeast fitness gain read?
Answer: inactive: -0.211

Question: B3 was tested. Which yeast fitness gain did it give?
Answer: inactive: 0.0239

Question: For B4, which yeast fitness gain is on record?
Answer: inactive: -0.0852

Question: B5 was tested. Which yeast fitness gain did it give?
Answer: inactive: 0.021

Molecular target: SARS-CoV-2 NSP1
Assay: as above
Experimental: as §1

Question: With B1 as the binder, how does the yeast fitness gain read?
Answer: inactive: -0.00997

Question: How did the yeast fitness gain turn out when B2 was run?
Answer: inactive: -0.0302

Molecular target: SARS-CoV-2 NSP10
Assay: as above
Experimental: as §1

Question: B1 was tested. Which yeast fitness gain did it give?
Answer: inactive: 0.0831

Question: With B2 as the binder, how does the yeast fitness gain read?
Answer: inactive: -0.0415

Question: How did the yeast fitness gain turn out when B4 was run?
Answer: inactive: 0.252

Question: B5 was tested. Which yeast fitness gain did it give?
Answer: inactive: -0.105

Molecular target: SARS-CoV-2 NSP12
Assay: as above
Experimental: as §1

Question: For B1, which yeast fitness gain is on record?
Answer: inactive: -0.115

Question: B2 was tested. Which yeast fitness gain did it give?
Answer: inactive: 0.0586

Question: B3 was tested. Which yeast fitness gain did it give?
Answer: inactive: 0.0795

Question: B4 was tested. Which yeast fitness gain did it give?
Answer: inactive: 0.541

Question: With B5 as the binder, how does the yeast fitness gain read?
Answer: inactive: 0.0206

Molecular target: SARS-CoV-2 NSP13
Assay: as above
Experimental: as §1

Question: For B1, which yeast fitness gain is on record?
Answer: inactive: 0.0299

Question: With B2 as the binder, how does the yeast fitness gain read?
Answer: inactive: -0.0192

Question: B3 was tested. Which yeast fitness gain did it give?
Answer: inactive: 0.0123

Question: Which yeast fitness gain does the source give for B4 here?
Answer: inactive: -0.0567

Question: B5 was tested. Which yeast fitness gain did it give?
Answer: inactive: 0.0717

Molecular target: SARS-CoV-2 NSP14
Assay: as above
Experimental: as §1

Question: With B1 as the binder, how does the yeast fitness gain read?
Answer: inactive: 0.147

Molecular target: SARS-CoV-2 NSP16
Assay: as above
Experimental: as §1

Question: Which yeast fitness gain does the source give for B1 here?
Answer: inactive: -0.0538

Question: With B3 as the binder, how does the yeast fitness gain read?
Answer: inactive: -0.0209

Molecular target: SARS-CoV-2 NSP2
Assay: as above
Experimental: as §1

Question: How did the yeast fitness gain turn out when B1 was run?
Answer: inactive: -0.158

Question: Which yeast fitness gain does the source give for B2 here?
Answer: inactive: -0.224

Question: B3 was tested. Which yeast fitness gain did it give?
Answer: inactive: -0.0902

Question: B4 was tested. Which yeast fitness gain did it give?
Answer: inactive: 0.601

Question: For B5, which yeast fitness gain is on record?
Answer: inactive: -0.171

Molecular target: SARS-CoV-2 NSP4
Assay: as above
Experimental: as §1

Question: Which yeast fitness gain does the source give for B1 here?
Answer: inactive: -0.107

Molecular target: SARS-CoV-2 NSP5
Assay: as above
Experimental: as §1

Question: With B1 as the binder, how does the yeast fitness gain read?
Answer: inactive: -0.0716

Question: B5 was tested. Which yeast fitness gain did it give?
Answer: inactive: -0.0337

Molecular target: SARS-CoV-2 NSP8
Assay: as above
Experimental: as §1

Question: With B1 as the binder, how does the yeast fitness gain read?
Answer: inactive: -0.0323

Question: For B4, which yeast fitness gain is on record?
Answer: inactive: -0.0251

Question: B5 was tested. Which yeast fitness gain did it give?
Answer: inactive: -0.0899

Molecular target: SARS-CoV-2 ORF10
Assay: as above
Experimental: as §1

Question: With B1 as the binder, how does the yeast fitness gain read?
Answer: inactive: -0.0464

Question: B2 was tested. Which yeast fitness gain did it give?
Answer: inactive: 0.0338

Question: For B3, which yeast fitness gain is on record?
Answer: inactive: -0.051

Question: How did the yeast fitness gain turn out when B4 was run?
Answer: inactive: 0.00661

Question: With B5 as the binder, how does the yeast fitness gain read?
Answer: inactive: 0.0485

Molecular target: SARS-CoV-2 ORF3A
Assay: as above
Experimental: as §1

Question: For B1, which yeast fitness gain is on record?
Answer: inactive: 0.113

Question: B2 was tested. Which yeast fitness gain did it give?
Answer: inactive: -0.00923

Question: B5 was tested. Which yeast fitness gain did it give?
Answer: inactive: -0.284

Molecular target: SARS-CoV-2 ORF3B
Assay: as above
Experimental: as §1

Question: Which yeast fitness gain does the source give for B1 here?
Answer: inactive: 0.011

Question: For B2, which yeast fitness gain is on record?
Answer: inactive: -0.0671

Question: With B3 as the binder, how does the yeast fitness gain read?
Answer: inactive: -0.0163

Question: B4 was tested. Which yeast fitness gain did it give?
Answer: inactive: -0.0186

Question: B5 was tested. Which yeast fitness gain did it give?
Answer: inactive: -0.0421

Molecular target: SARS-CoV-2 ORF6
Assay: as above
Experimental: as §1

Question: For B1, which yeast fitness gain is on record?
Answer: inactive: -0.0118

Question: Which yeast fitness gain does the source give for B2 here?
Answer: inactive: -0.0113

Question: For B3, which yeast fitness gain is on record?
Answer: inactive: 0.00982

Question: With B4 as the binder, how does the yeast fitness gain read?
Answer: inactive: 0.236

Question: Which yeast fitness gain does the source give for B5 here?
Answer: inactive: 0.0619

Molecular target: SARS-CoV-2 ORF7A
Assay: as above
Experimental: as §1

Question: How did the yeast fitness gain turn out when B1 was run?
Answer: inactive: 0.025

Question: With B2 as the binder, how does the yeast fitness gain read?
Answer: inactive: -0.0337

Question: B3 was tested. Which yeast fitness gain did it give?
Answer: inactive: -0.0346

Molecular target: SARS-CoV-2 ORF8
Assay: as above
Experimental: as §1

Question: For B1, which yeast fitness gain is on record?
Answer: inactive: -0.017

Question: With B2 as the binder, how does the yeast fitness gain read?
Answer: inactive: 0.0198

Question: B3 was tested. Which yeast fitness gain did it give?
Answer: inactive: -0.117

Question: B4 was tested. Which yeast fitness gain did it give?
Answer: inactive: 0.211

Question: How did the yeast fitness gain turn out when B5 was run?
Answer: inactive: 0.0649

Molecular target: SARS-CoV-2 ORF9B
Assay: as above
Experimental: as §1

Question: Which yeast fitness gain does the source give for B1 here?
Answer: inactive: 0.0684

Question: Which yeast fitness gain does the source give for B2 here?
Answer: inactive: 0.000484

Question: Which yeast fitness gain does the source give for B3 here?
Answer: inactive: -0.0788

Question: With B4 as the binder, how does the yeast fitness gain read?
Answer: inactive: -0.0798

Question: How did the yeast fitness gain turn out when B5 was run?
Answer: inactive: -0.133

Molecular target: SARS-CoV-2 S
Assay: as above
Experimental: as §1

Question: B1 was tested. Which yeast fitness gain did it give?
Answer: inactive: -0.0214

Question: Which yeast fitness gain does the source give for B2 here?
Answer: inactive: 0.00969

Question: For B4, which yeast fitness gain is on record?
Answer: inactive: -0.0544

Question: B5 was tested. Which yeast fitness gain did it give?
Answer: inactive: -0.034

Molecular target: SARS-CoV-2 N
Assay: as above
Experimental: as §1

Question: Which yeast fitness gain does the source give for B2 here?
Answer: inactive: 0.0554

Question: With B5 as the binder, how does the yeast fitness gain read?
Answer: inactive: -0.0432

Molecular target: SARS-CoV-2 NSP6
Assay: as above
Experimental: as §1

Question: With B2 as the binder, how does the yeast fitness gain read?
Answer: inactive: 0.0139

Question: With B3 as the binder, how does the yeast fitness gain read?
Answer: inactive: 0.00678

Question: How did the yeast fitness gain turn out when B4 was run?
Answer: inactive: -0.0712

Question: B5 was tested. Which yeast fitness gain did it give?
Answer: inactive: -0.0301

Molecular target: SARS-CoV-2 NSP7
Assay: as above
Experimental: as §1

Question: For B2, which yeast fitness gain is on record?
Answer: inactive: 0.0604

Question: B3 was tested. Which yeast fitness gain did it give?
Answer: inactive: -0.00449

Molecular target: SARS-CoV-2 ORF7B
Assay: as above
Experimental: as §1

Question: With B2 as the binder, how does the yeast fitness gain read?
Answer: inactive: 0.0193

Question: B3 was tested. Which yeast fitness gain did it give?
Answer: inactive: 0.151

Molecular target: SARS-CoV-2 ORF9Bwu (the 73-codon ORF)
Assay: as above
Experimental: as §1

Question: Which yeast fitness gain does the source give for B2 here?
Answer: inactive: 0.155

Question: B5 was tested. Which yeast fitness gain did it give?
Answer: inactive: 0.131

Molecular target: SARS-CoV-2 NSP15
Assay: as above
Experimental: as §1

Question: How did the yeast fitness gain turn out when B4 was run?
Answer: inactive: 0.0197
